From PubChem BioAssay AID504332 (National Center for Advancing Translational Sciences (NCATS), 2011)
The whole screen tested about 350,000 compounds, of which about 31,000 (8.9%) were called active. The shares of active, inactive and inconclusive entries below differ from those in the screen. Calls follow the shape of the dose curve; as a rule, active = well fitted inhibition curve with a large enough effect; inconclusive = small, poorly fitted or top-dose-only effect; inactive = no such curve, though single readings can be large or run the other way. Potencies beside an inconclusive call are fits to weak or partial responses and may not hold up.

The molecules below were run against Histone-lysine N-methyltransferase EHMT2 (Homo sapiens) (UniProt Q96KQ7) (assay: qHTS Assay for Inhibitors of Histone Lysine Methyltransferase G9a). Conditions: G9a H3K9 monomethylation, AlphaScreen, 2 h; activity, negative = inhibition: at 59 µM (top of the series) unless noted.
UniProt Q96KQ7, sequence (Q96KQ7 whole entry, looked up): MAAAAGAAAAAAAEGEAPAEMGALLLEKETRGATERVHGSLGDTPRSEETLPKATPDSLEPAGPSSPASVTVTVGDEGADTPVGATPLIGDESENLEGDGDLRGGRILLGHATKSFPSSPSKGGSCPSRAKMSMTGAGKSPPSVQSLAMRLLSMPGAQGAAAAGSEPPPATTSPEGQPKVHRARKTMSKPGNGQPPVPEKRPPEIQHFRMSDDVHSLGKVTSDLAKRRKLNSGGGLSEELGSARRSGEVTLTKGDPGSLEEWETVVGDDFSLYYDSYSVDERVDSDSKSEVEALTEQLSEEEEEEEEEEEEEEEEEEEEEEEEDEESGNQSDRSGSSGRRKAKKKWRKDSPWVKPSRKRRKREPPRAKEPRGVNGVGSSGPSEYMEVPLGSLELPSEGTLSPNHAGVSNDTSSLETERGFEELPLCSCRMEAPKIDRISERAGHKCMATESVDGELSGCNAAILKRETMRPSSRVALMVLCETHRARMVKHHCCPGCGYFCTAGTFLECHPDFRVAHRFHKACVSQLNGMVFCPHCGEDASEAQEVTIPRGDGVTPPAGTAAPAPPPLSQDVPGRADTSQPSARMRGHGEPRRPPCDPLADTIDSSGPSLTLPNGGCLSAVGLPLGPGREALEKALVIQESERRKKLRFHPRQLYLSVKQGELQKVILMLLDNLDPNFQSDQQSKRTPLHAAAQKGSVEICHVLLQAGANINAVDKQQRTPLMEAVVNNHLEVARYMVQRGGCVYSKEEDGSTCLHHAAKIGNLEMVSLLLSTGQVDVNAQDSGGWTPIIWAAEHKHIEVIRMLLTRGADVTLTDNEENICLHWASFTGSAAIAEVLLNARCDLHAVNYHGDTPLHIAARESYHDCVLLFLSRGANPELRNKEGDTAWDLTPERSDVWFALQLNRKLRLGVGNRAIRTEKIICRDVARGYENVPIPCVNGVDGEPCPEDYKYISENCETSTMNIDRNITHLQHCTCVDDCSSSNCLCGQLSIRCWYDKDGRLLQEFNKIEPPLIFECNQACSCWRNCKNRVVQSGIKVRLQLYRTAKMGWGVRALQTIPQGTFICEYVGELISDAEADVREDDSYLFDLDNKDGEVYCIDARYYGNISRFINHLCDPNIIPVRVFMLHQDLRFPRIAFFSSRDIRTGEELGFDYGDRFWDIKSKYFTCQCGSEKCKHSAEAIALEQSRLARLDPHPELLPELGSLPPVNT
How it was run: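 G9a (20 nM) preincubated 15 min RT with compounds, then 500 nM biotinylated H3K9 peptide and 20 uM SAM added; 2 h RT reaction. Monomethyl-H3K9 product detected by AlphaScreen with anti-H3K9me1 antibody, streptavidin donor and anti-rabbit IgG acceptor beads.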
% is scaled to controls: 0 for no effect and ±100 for the full control effect; potency is read from the fitted curve at half-maximal effect; tags tell the direction and shape of the fitted curve.
Also: nearly all actives have a fitted effect of over 75% in size.

Row | Compound | Potency | activity, negative = inhibition
1 | CC(C)(C)OC(=O)N[C@@H](Cc1ccccc1)c1nnc(S(=O)(=O)Cc2ccccc2)o1 | active: 11.2 µM | –
2 | COc1ccc(OC)c(Nc2nc(-c3sc(NC(=O)CC(C)C)nc3C)cs2)c1 | active: 8.91 µM | –
3 | COc1cc(/C=C2\SC(=S)N(Nc3ccccc3)C2=O)ccc1O | inconclusive: 14.1 µM [inhibitor, partial curve, poor fit] | –
4 | CC(C)N1CCN(Cc2coc3ccccc3c2=O)CC1CCO (stereo not given) | – | inactive: -4.6% [at 102 µM]
5 | Cc1nn(-c2nc(-c3ccco3)cc(C(F)(F)F)n2)c(C)c1Br | inconclusive: 35.5 µM [inhibitor, single point] | –
6 | CC(C)C(=O)Nc1c(-c2ccc(Cl)cc2)c(=O)c2ccccc2n1C | inconclusive: 89.1 µM [inhibitor, single point] | –
7 | CC(=O)Nc1ccc(S(=O)(=O)N2CCN(C(=O)Cc3ccccc3)CC2)cc1 | – | inactive: -3.96%
8 | Cc1c(Cl)ccc2c1NC(=O)[C@]21[C@@H]2C(=O)N(Cc3ccccc3)C(=O)[C@@H]2[C@@H]2CCCN21 | active: 44.7 µM | –
9 | COc1ccc(-c2nc(C#N)c(N3CCCCCC3)o2)cc1 | inconclusive: 14.1 µM [inhibitor, partial curve, poor fit] | –
10 | Cc1ccc2c(c1)NC(=O)C(CC(=O)NCCCN1CCCC1=O)O2 (stereo not given) | inconclusive: 89.1 µM [inhibitor, single point] | –
11 | Cc1noc(/C=C/c2ccc(-c3ccccc3Cl)o2)c1[N+](=O)[O-] | inconclusive: 0.631 µM [inhibitor, single point] | –
12 | CN1CCN(c2ccc([N+](=O)[O-])cc2/C=N/NC(=O)c2cccc([N+](=O)[O-])c2)CC1 | inconclusive: 50.1 µM [inhibitor, partial curve, poor fit] | –
13 | Cc1ccc(C)c(NC(=O)Cn2nnc(C(=O)NCCc3ccccc3)c2N)c1 | inconclusive: 3.55 µM [inhibitor, partial curve, poor fit] | –
14 | S=c1[nH]ccn1-c1c(Cl)cccc1Cl | active: 10 µM | –
15 | O=C(Nc1cccc(C(F)(F)F)c1)/C(=C\c1ccco1)NC(=O)c1cccs1 | – | inactive: 23.4%
16 | Cc1ccc(C(=O)NCC(=O)NC2CCCCCC2)cc1 | inconclusive: 31.6 µM [inhibitor, single point] | –
17 | O=S1(=O)C=C(Sc2nc3ccccc3s2)c2ccccc21 | inconclusive: 2.51 µM [inhibitor, partial curve, poor fit] | –
18 | Cc1ccc(CSCc2ccc(C(=O)NC3CC3)o2)cc1 | inconclusive: 35.5 µM [inhibitor, single point] | –
19 | CCN1CCN(CCCNc2ncnc3nc[nH]c23)CC1 | inconclusive: 28.2 µM [inhibitor, single point] | –
20 | Cc1cc[n+](-c2ccccc2)c2ccccc12 | active: 25.1 µM | –
21 | COCc1cc(C)nc(SCC(=O)c2ccc(O)c(O)c2)c1C#N | active: 10 µM | –
22 | CC1CCc2[nH]nc(C(=O)O)c2C1 (stereo not given) | active: 28.2 µM | –
23 | CCOC(=O)c1sc(NC(=O)C2CC(=O)N(c3ccc(OCC)cc3)C2)nc1C (stereo not given) | inconclusive: 89.1 µM [inhibitor, single point] | –

Row | Compound | Potency | activity, negative = inhibition
24 | COc1ccc(S(=O)(=O)N2CCC(n3cnc4cc(C(F)(F)F)ccc43)CC2)cc1 | inconclusive: 50.1 µM [inhibitor, partial curve, poor fit] | –
25 | Cc1cc(CN2CCN(CC(=O)Nc3cc(Cl)ccc3-n3cncn3)CC2)no1 | inconclusive: 79.4 µM [inhibitor, single point] | –
26 | CC1(C)Cc2ccccc2C(/C(=N\Nc2cccc(Cl)c2)C(N)=O)=N1 | inconclusive: 20 µM [inhibitor, single point] | –
27 | CN1CCN(CC(O)(c2ccc(Cl)cc2)c2ccc(Cl)cc2)CC1 | inconclusive: 79.4 µM [inhibitor, partial curve, poor fit] | –
28 | Cc1noc(C)c1CSc1nnc2cc(C)c3ccccc3n12 | inconclusive: 20 µM [inhibitor, partial curve, poor fit] | –
29 | COc1ccc(S(=O)(=O)N2CCN(CCOc3ccc(Br)cc3)CC2)cc1OC | inconclusive: 35.5 µM [inhibitor, single point] | –
30 | O=C(NCc1cccc(Cl)c1)c1ccc2c(c1)SC1=NS(=O)(=O)CCN12 | – | inconclusive: -90.5% [inhibitor]
31 | CCOC(=O)C1=C(C)OC(N)=C(C#N)C1c1ccc(C)o1 (stereo not given) | inconclusive: 89.1 µM [inhibitor, partial curve, poor fit] | –
32 | COc1ccc(NC(=O)c2oc3ccccc3c2NC(=O)C(C)(C)C)cc1 | inconclusive: 89.1 µM [inhibitor, single point] | –
33 | CCN(CC)C(=O)CN(C#N)c1nc(OC)nc(N(C)C)n1 | inconclusive: 89.1 µM [inhibitor, single point] | –
34 | Cc1cc(C(=O)Cn2nnc(-c3ccc(Cl)cc3)n2)c(C)n1CC1CCCO1 (stereo not given) | inconclusive: 39.8 µM [inhibitor, single point] | –
35 | CCOc1ccccc1CNC(=O)c1cn(-c2ccc(OC)cc2)c(=O)c2ccccc12 | inconclusive: 11.2 µM [inhibitor, partial curve] | –
36 | Cc1ccc(OCc2ccoc2C(=O)O)cc1C | inconclusive: 7.08 µM [inhibitor, single point] | –
37 | CCc1nnc(SCC(=O)Nc2nccs2)n1CC | – | inactive: -2.36% [at 102 µM]
38 | COC(=O)c1ccccc1OCCCCN1CC(C)OC(C)C1 (stereo not given) | active: 3.55 µM | –
39 | CC/C(=N\Nc1ccnc2cc(Cl)ccc12)c1ccc(O)cc1 | active: 28.2 µM | –
40 | COC(=O)c1ccc(CNC(=O)CSc2nc3ccccc3[nH]2)cc1 | active: 39.8 µM | –
41 | O=C(Nc1ccc(-c2cn3c(n2)SCC3)cc1)c1ccco1 | active: 28.2 µM | –
42 | CC(=O)NNC(=O)c1csc(-c2csc(C)n2)n1 | inconclusive: 3.98 µM [inhibitor, full curve, poor fit] | –
43 | CCN(Cc1ccccc1)C1CCN(Cc2ccccc2)CC1 | active: 70.8 µM | –
44 | N#Cc1c2nc3ccccc3nc2n2cc(NC(=O)c3ccc(F)cc3)ccc12 | active: 3.16 µM | –
45 | CCOc1ccccc1C(=O)Nc1cc(Cl)ccc1O | – | inactive: 7.13%
